Among the data in PubChem BioAssay (NCI) are GI50 and TGI values, retold here.

Test systems include HOP-92 NSCLC; NCI/ADR-RES ovarian; KM12 colon; SF-539 CNS; NCI-H460 lung; SK-OV-3 ovarian; MDA-N; CAKI-1 renal; LOX IMVI melanoma; OVCAR-8 ovarian; SF-295 CNS; KM20L2 colon; MCF7 breast; UACC-62 melanoma; IGROV1 ovarian; NCI-H23 lung; SK-MEL-5 melanoma; SNB-75 CNS; M14 melanoma; HCT-116 colon; MDA-MB-231 breast; UO-31 renal; MOLT-4 leukemia; U251 CNS; COLO 205 colon; SNB-19 CNS; HCT-15 colon; RPMI-8226 leukemia; CCRF-CEM leukemia; A549 NSCLC; NCI-H226 lung; HOP-62 NSCLC; HCC-2998 colon; HT29 colon; RXF 393 renal; TK-10 renal; NCI-H522 lung; SW-620 colon; BT-549 breast; HS 578T breast; EKVX NSCLC; SF-268 CNS.

Common to all, as to experiment: NCI anticancer screen, dose series, 48 h

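All cell lines were grown in 96-well plates and treated with compound for 48 hours. The concentration for 50% growth inhibition is given as GI50.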 Some entries of the source have several records that differ or are many. This list holds those alone. There may be further records. For some of these results: The tests behind the records often covered other concentration ranges, not given here; a value can be the end of its range. For some of these results: The values listed for one entry repeat one measurement in other runs, samples, wells, individuals or studies. A tag in brackets gives the origin of a value. Letters hold for one entry only.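 TGI: total growth inhibition.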

As for `COC(=O)Nc1nc2ccc(C(=O)c3ccccc3)cc2[nH]1`, the GI50 in the experiment on HOP-92 NSCLC was 8.31 µM [sample A, mean of 2 tests] and 390 nM [sample B, mean of 2 tests]. For the same molecule, the TGI is > 100 µM [sample A, 1 test] and 2.2 µM [sample B, 1 test] in the experiment on NCI/ADR-RES ovarian; 2.09 µM [sample A, mean of 2 tests] and 29.4 µM [sample B, mean of 2 tests] in the experiment with KM12 colon; 699 nM [sample A, mean of 2 tests] and > 50.7 µM [sample B, mean of 2 tests] with SF-539 CNS; 3.89 µM [sample A, mean of 2 tests] and > 64.4 µM [sample B, mean of 2 tests] in the experiment with NCI-H460 lung; 65.4 µM [sample A, mean of 2 tests] and 3.46 µM [sample B, mean of 2 tests] in the experiment on SK-OV-3 ovarian.
Turning to `CCC1(OC(=O)CN)C(=O)OCc2c1cc1n(c2=O)Cc2cc3ccccc3nc2-1` (stereo not drawn), the TGI with HOP-92 NSCLC was 676 nM and 9.18 µM; in the experiment with MDA-N, 473 nM and > 100 µM; with CAKI-1 renal it was 55.3 nM and 1.34 µM; in the experiment with LOX IMVI melanoma, 135 nM and 1.56 µM; with OVCAR-8 ovarian, 302 nM [mean of 2 tests] and > 25.7 µM [mean of 3 tests]; with SF-295 CNS, 28.3 nM and 1.41 µM. The TGI in the experiment on KM20L2 colon was 690 nM and 38.6 µM; in the experiment on NCI-H460 lung it was 528 nM and 25.8 nM; in the experiment with MCF7 breast, 416 nM and > 100 µM.
For the molecule `CO[C@H]1C[C@](C)(O)Cc2cc3c(c(O)c21)C(=O)c1c(O)cc2c(c1C3=O)O[C@@H]1O[C@@]2(C)[C@H](O)[C@@H](N(C)C)[C@@H]1O`, the GI50 in the experiment with UACC-62 melanoma is 9.34 nM and 1.07 µM; with IGROV1 ovarian it was 9.68 nM and 3.2 µM; with NCI-H23 lung, 647 nM [mean of 3 tests] and 9.51 nM [mean of 4 tests]; in the experiment on SK-MEL-5 melanoma, 6.16 nM [mean of 3 tests] and 895 nM [mean of 4 tests]; in the experiment on SNB-75 CNS, 1.54 µM [mean of 3 tests] and 7.2 nM [mean of 4 tests]. Besides, in the experiment on SNB-75 CNS, the TGI was 9.97 nM, 4.47 µM, 4.21 µM.
`CCCCCCCCCCCCCCCCOP(=O)([O-])OCC[N+](C)(C)C`: the TGI with UACC-62 melanoma was 49.9 µM [sample A] and 4.54 µM [sample B]; with M14 melanoma, 33.4 µM [sample A] and 3.2 µM [sample B]; in the experiment with HCT-116 colon, 44.3 µM [sample A] and 3.78 µM [sample B]; in the experiment with MDA-MB-231 breast, 41.9 µM [sample A] and 2.82 µM [sample B]; in the experiment with UO-31 renal, 47.4 µM [sample A] and 3.08 µM [sample B]; in the experiment on MOLT-4 leukemia it was 31.3 µM [sample A] and 2.65 µM [sample B]. Also, the TGI is 36.2 µM [sample A] and 2.22 µM [sample B] in the experiment on U251 CNS; 29 µM [sample A] and 1.5 µM [sample B] with COLO 205 colon; 55.3 µM [sample A] and 2.75 µM [sample B] in the experiment with LOX IMVI melanoma; 36.1 µM [sample A] and 2.58 µM [sample B] in the experiment on SNB-19 CNS; 29.5 µM [sample A] and 2.42 µM [sample B] in the experiment on HCT-15 colon; 30.7 µM [sample A] and 1.89 µM [sample B] with RPMI-8226 leukemia. The TGI in the experiment on CCRF-CEM leukemia was 28.3 µM [sample A, mean of 4 tests] and 2.7 µM [sample B, 1 test]; in the experiment with A549 NSCLC, 65.5 µM [sample A] and 4.4 µM [sample B]; with NCI-H226 lung it was 47.7 µM [sample A] and 3.18 µM [sample B]; in the experiment with HOP-62 NSCLC, 36.8 µM [sample A] and 3.47 µM [sample B]; in the experiment with HCC-2998 colon, 25.4 µM [sample A] and 2.37 µM [sample B]; in the experiment with HT29 colon it was 37.7 µM [sample A] and 1.5 µM [sample B]. Further, the TGI with RXF 393 renal was 23.7 µM [sample A] and 1.83 µM [sample B]; in the experiment on NCI-H460 lung it was 22.3 µM [sample A] and 2.07 µM [sample B]; in the experiment on TK-10 renal, 6.6 µM [sample A] and 443 nM [sample B]; with NCI-H522 lung, 43.2 µM [sample A] and 2.22 µM [sample B]; in the experiment with SNB-75 CNS, 48.5 µM [sample A] and 4.3 µM [sample B].
As for `COC(=O)CCNc1c2ccccc2nc2cccc([N+](=O)[O-])c12`, the TGI in the experiment with SW-620 colon is 1.9 nM and 79.2 nM; in the experiment with NCI-H23 lung, 2.6 µM and 19.5 nM; in the experiment with SF-295 CNS it was 26.3 nM and 480 nM; in the experiment with BT-549 breast, 7.9 nM and 102 nM; in the experiment with EKVX NSCLC, 7.85 nM and 146 nM; with SF-268 CNS, 4.26 nM and 141 nM. Also, the GI50 in the experiment on IGROV1 ovarian is 1.67 nM and 18.3 nM; with A549 NSCLC, 1 nM and 48.6 nM; in the experiment on BT-549 breast, 1.45 nM and 16.7 nM; in the experiment with HS 578T breast, 1.54 nM and 19.8 nM; in the experiment on EKVX NSCLC it was 1.07 nM and 31.1 nM.
`Cc1c(N)nc(C(CC(N)=O)NCC(N)C(N)=O)nc1C(=O)NC(C(=O)NC(C)C(O)C(C)C(=O)NC(C(=O)NCCc1nc(-c2nc(C(=O)NCCCNC(C)c3ccccc3)cs2)cs1)C(C)O)C(OC1OC(CO)C(O)C(O)C1OC1OC(CO)C(O)C(OC(N)=O)C1O)c1cnc[nH]1` (stereo not drawn): the TGI in the experiment with UO-31 renal is 4.7 µM and 81 µM; in the experiment with CAKI-1 renal, 1.41 µM and > 100 µM; in the experiment on NCI-H460 lung it was 8.13 µM and > 100 µM.
